Results on eleven molecules are retold here after patent US9901592B2 (priority 2008, dated 2018).

What all share (type): cell-based
Experiment [1] deals with S. aureus.
Experiment [2] deals with S. pneumoniae.
The subject of experiment [3] is H. influenzae. Conditions: H. influenzae 49247 Ery-S.
The mark [4] stands for this setting: S. aureus 96:11480 Ery-R (MLSb).

SMILES strings stand for the structures. Converted amounts (≈) assume the structure as drawn. Where two headings read alike, the source gives them in different places.

For `CCC1OC(=O)C(C)C(=O)C(C)C(OC2OC(C)CC(N(C)C)C2O)C(C)(OC)CC(C)C(=O)C(C)C2N(CCCCCn3cc(-c4ccc(C(F)(F)F)cc4)nn3)C(=O)OC12C` (centres unmarked) [Entry 13c], the MIC in experiment [1] (setting [4]) came to 1 µg/mL (≈ 1.12 µM); in experiment [1] (S. aureus 29213 Ery-S), 0.5 µg/mL (≈ 0.559 µM); in experiment [2] (S. pneumoniae 163 Ery-R (MefA)), 0.5 µg/mL (≈ 0.559 µM); in experiment [2] (S. pneumoniae 303 Ery-R (ermB)), 2 µg/mL (≈ 2.24 µM); in experiment [3], 64 µg/mL (≈ 71.6 µM).
Regarding `CCC1OC(=O)C(C)C(=O)C(C)C(OC2OC(C)CC(N(C)C)C2O)C(C)(OC)CC(C)C(=O)C(C)C2N(CCCCn3cc(-c4ccccc4)nn3)C(=O)OC12C` (centres unmarked) [Entry 11b], the MIC stood at 0.25 µg/mL (≈ 0.308 µM) in experiment [1] (setting [4]), 2 µg/mL (≈ 2.46 µM) in experiment [2] (S. pneumoniae 303 Ery-R (ermB)) and 8 µg/mL (≈ 9.85 µM) in experiment [3].
On to `CCC1OC(=O)C(C)C(=O)C(C)C(OC2OC(C)CC(N(C)C)C2O)C(C)(OC)CC(C)C(=O)C(C)C2N(CCCCCn3cc(Cn4nnc5ccccc54)nn3)C(=O)OC12C` (centres unmarked) [Entry 18c], for which the MIC in experiment [1] (setting [4]) was at most 0.125 µg/mL; in experiment [1] (S. aureus 29213 Ery-S) it was at most 0.125 µg/mL; in experiment [2] (S. pneumoniae 163 Ery-R (MefA)), at most 0.125 µg/mL; in experiment [3], 8 µg/mL (≈ 9.08 µM).
In the case of `CCC1OC(=O)C(C)C(=O)C(C)C(OC2OC(C)CC(N(C)C)C2O)C(C)(OC)CC(C)C(=O)C(C)C2N(CCCn3cc(-c4cccc(N)c4)nn3)C(=O)OC12C` (centres unmarked) [Entry 16a], the MIC was 0.5 µg/mL (≈ 0.615 µM) in experiment [1] (S. aureus 29213 Ery-S), over 64 µg/mL in experiment [2] (S. pneumoniae 303 Ery-R (ermB)) and 16 µg/mL (≈ 19.7 µM) in experiment [3].
Consider `CCC1OC(=O)C(C)C(=O)C(C)C(OC2OC(C)CC(N(C)C)C2O)C(C)(OC)CC(C)C(=O)C(C)C2N(CCCCn3cc(COc4c(Cl)cccc4Cl)nn3)C(=O)OC12C` (centres unmarked) [Entry 17b], for which the MIC in experiment [1] (setting [4]) is at most 0.125 µg/mL; in experiment [1] (S. aureus 29213 Ery-S), at most 0.125 µg/mL; in experiment [2] (S. pneumoniae 303 Ery-R (ermB)), 1 µg/mL (≈ 1.1 µM); in experiment [3], 16 µg/mL (≈ 17.6 µM).
For the molecule `CCC1OC(=O)C(C)C(=O)C(C)C(OC2OC(C)CC(N(C)C)C2O)C(C)(OC)CC(C)C(=O)C(C)C2N(CCCn3cc(-c4cccnc4)nn3)C(=O)OC12C` (centres unmarked) [Entry 15a], the MIC in experiment [1] (setting [4]) was 2 µg/mL (≈ 2.5 µM); in experiment [1] (S. aureus 29213 Ery-S), 2 µg/mL (≈ 2.5 µM); in experiment [2] (S. pneumoniae 163 Ery-R (MefA)), 1 µg/mL (≈ 1.25 µM); in experiment [2] (S. pneumoniae 303 Ery-R (ermB)) it was over 64 µg/mL; in experiment [3], over 64 µg/mL.
On to `CCC1OC(=O)C(C)C(=O)C(C)C(OC2OC(C)CC(N(C)C)C2O)C(C)(OC)CC(C)C(=O)C(C)C2N(CCCCCn3cc(-c4ccccc4)nn3)C(=O)OC12C` (centres unmarked) [Entry 11c], for which the MIC is at most 0.125 µg/mL in experiment [1] (setting [4]), 0.25 µg/mL (≈ 0.303 µM) in experiment [2] (S. pneumoniae 303 Ery-R (ermB)) and 16 µg/mL (≈ 19.4 µM) in experiment [3].
Turning to `CCC1OC(=O)C(C)C(=O)C(C)C(OC2OC(C)CC(N(C)C)C2O)C(C)(OC)CC(C)C(=O)C(C)C2N(CCCn3cc(Cn4nnc5ccccc54)nn3)C(=O)OC12C` (centres unmarked) [Entry 18a], the MIC in experiment [1] (setting [4]) is 2 µg/mL (≈ 2.34 µM); in experiment [1] (S. aureus 29213 Ery-S), 1 µg/mL (≈ 1.17 µM); in experiment [2] (S. pneumoniae 163 Ery-R (MefA)) it was 0.5 µg/mL (≈ 0.586 µM); in experiment [2] (S. pneumoniae 303 Ery-R (ermB)) it was >64 64 64 μg/mL; in experiment [3], over 64 µg/mL.
Take `CCC1OC(=O)C(C)C(=O)C(C)C(OC2OC(C)CC(N(C)C)C2O)C(C)(OC)CC(C)C(=O)C(C)C2N(CCCCn3cc(-c4cccnc4)nn3)C(=O)OC12C` (centres unmarked) [Entry 15b]: the MIC in experiment [1] (setting [4]) is 4 µg/mL (≈ 4.92 µM); in experiment [2] (S. pneumoniae 163 Ery-R (MefA)), 2 µg/mL (≈ 2.46 µM); in experiment [2] (S. pneumoniae 303 Ery-R (ermB)) it was 64 µg/mL (≈ 78.7 µM); in experiment [3], 64 µg/mL (≈ 78.7 µM).
For `CCC1OC(=O)C(C)C(=O)C(C)C(OC2OC(C)CC(N(C)C)C2O)C(C)(OC)CC(C)C(=O)C(C)C2N(CCCCn3cc(-c4ccc(C(F)(F)F)cc4)nn3)C(=O)OC12C` (centres unmarked) [Entry 13b], the MIC was determined as 0.25 µg/mL (≈ 0.284 µM) in experiment [1] (setting [4]), 0.25 µg/mL (≈ 0.284 µM) in experiment [1] (S. aureus 29213 Ery-S), 8 µg/mL (≈ 9.09 µM) in experiment [2] (S. pneumoniae 303 Ery-R (ermB)) and 8 µg/mL (≈ 9.09 µM) in experiment [3].
`CCC1OC(=O)C(C)C(=O)C(C)C(OC2OC(C)CC(N(C)C)C2O)C(C)(OC)CC(C)C(=O)C(C)C2N(CCCn3cc(COc4c(Cl)cccc4Cl)nn3)C(=O)OC12C` (centres unmarked) [Entry 17a]: the MIC in experiment [1] (setting [4]) is 1 µg/mL (≈ 1.11 µM); in experiment [1] (S. aureus 29213 Ery-S), 1 µg/mL (≈ 1.11 µM); in experiment [2] (S. pneumoniae 303 Ery-R (ermB)), over 64 µg/mL; in experiment [3], over 64 µg/mL.
